Structures can show the parent of a compound that is named as a salt. The list shows a part of the results. Single values are uncertain, as repeats are few or missing.
Columns and labels:
[1] = tested on: H9 teratoma-derived LAM model cells, TSC2-/-; test: percent SyTOX+ dead cells; higher = more cytotoxic; settings: 5 µM, treatment time 72 h, culture: 3D hyaluronic acid hydrogel
[2] = tested on: H9 teratoma-derived LAM model cells, WT; test: percent SyTOX+ dead cells; higher = more cytotoxic; settings: 5 µM, treatment time 72 h, culture: 3D hyaluronic acid hydrogel, genotype: WT
[3] = tested on: H9 teratoma-derived LAM model cells, TSC2-/-; test: percent of cells invaded past median invasion distance of vehicle control; LAM is lymphangioleiomyomatosis; the cells come from teratomas of the human stem cell line H9; higher = more invasion; extreme values may be limits of the assay; settings: 5 µM, treatment time 72 h, culture: 3D hyaluronic acid hydrogel
[4] = tested on: H9 teratoma-derived LAM model cells, WT; test: as above; settings: 5 µM, treatment time 72 h, culture: 3D hyaluronic acid hydrogel, genotype: WT
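Throughout, for percent SyTOX+ dead cells: cells seeded atop a hyaluronic acid gel crosslinked via MMP-cleavable peptides, containing vitronectin peptides and methylcellulose, imaged live by high-content microscopy with automated analysis, one technical replicate per compound.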
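Throughout, for percent of cells invaded past median invasion distance of vehicle control: live cells imaged by high content microscopy and scored with in-house automated image analysis, one technical replicate per compound in each genotype and rapamycin condition.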

Structure (SMILES) | percent SyTOX+ dead cells ([1]; rapamycin 0 nM) [%] | percent SyTOX+ dead cells ([1]; rapamycin 20 nM) [%] | percent SyTOX+ dead cells ([2]; rapamycin 0 nM) [%] | percent SyTOX+ dead cells ([2]; rapamycin 20 nM) [%] | percent ([3]; rapamycin 0 nM) [%] | percent ([3]; rapamycin 20 nM) [%] | percent ([4]; rapamycin 0 nM) [%] | percent ([4]; rapamycin 20 nM) [%]
CCN(CC)CCCCNc1ncc2cc(-c3cc(OC)cc(OC)c3)c(NC(=O)NC(C)(C)C)nc2n1 | 15.1 | 11.3 | 10.4 | 17.8 | 58.6 | 42.7 | 12.6 | 22.4
O=C(NOCC(O)CO)c1cc(Br)c(F)c(F)c1Nc1ccc(I)cc1F (configuration not stated) | 26.3 | 12.2 | 42 | 25.6 | 69.1 | 66.2 | 59.6 | 20.7
Cc1cc([N+](=O)[O-])ccc1NS(=O)(=O)c1cc(Cl)ccc1Cl | 19.1 | 12.7 | 12.2 | 10.1 | 64.1 | 48.5 | 42.1 | 44.4
COc1cc(N2CCC(N3CCN(C)CC3)CC2)ccc1Nc1ncc(Cl)c(Nc2ccccc2S(=O)(=O)C(C)C)n1 | 25.8 | 39.7 | 75.2 | 75.4 | 0 | 17.2 | 0 | 0
CC(C)c1ccc(/C=N/NC(=O)c2ccc(O)cc2)cc1 | 5.24 | 1.77 | 4.95 | 0.53 | 81.2 | 18.6 | 45.5 | 34.2
c1ccc2c(-c3cnn4cc(-c5ccc(N6CCNCC6)cc5)cnc34)ccnc2c1 | 7.39 | 4.89 | 22.9 | 16.9 | 96.9 | 66.3 | 44.6 | 11.8
O=Nc1c(-c2c(O)[nH]c3cc(Br)ccc23)[nH]c2ccccc12 [6-bromoindirubin-3'-oxime, BIO] | 72.1 | 83.8 | 86 | 93.8 | 0 | 2.6 | 0 | 0
Cc1ccc(C(=O)Nc2cccc(C(F)(F)F)c2)cc1-c1ccc2nc(NCCN3CCOCC3)ncc2c1 | 61.5 | 68.4 | 85.8 | 82.4 | 0 | 3.16 | 0 | 0
O=C(Nc1ccccc1-c1cn2c(CN3CC[C@@H](O)C3)csc2n1)c1ccc2ccccc2c1 | 7.89 | 4.76 | 17.2 | 6.11 | 63.2 | 57.9 | 50 | 25.3
O=C(O)C(=O)Nc1sc2c(c1C(=O)O)CCNC2 | 10.4 | 16.4 | 18.5 | 11.6 | 65.6 | 52.7 | 50.4 | 56.9
Cc1ccc(-c2ccc3c(ccc4sc5c(c43)NC[C@@H](C)NC5=O)n2)cn1 | 13.2 | 15.6 | 36.8 | 27.7 | 58.7 | 24.9 | 20.9 | 5.12
O=C(NC1CCOCC1)c1ccc(-c2cc(-c3c[nH]nc3-c3ccccn3)ccn2)cc1 | 2.97 | 5.39 | 21.1 | 16.7 | 60.9 | 50.3 | 44.8 | 13.8
COc1cc2c(NC3CCN(C)CC3)nc(N3CCCN(C)CC3)nc2cc1OCCOCCN(C)C | 7.36 | 11.5 | 12 | 12.1 | 53.5 | 37.8 | 55.9 | 33.5
COc1cc2c(Oc3ccc4[nH]c(C)cc4c3F)ncnc2cc1OCCCN1CCCC1 [Cediranib, AZD-2171, Recentin] | 15.6 | 10.9 | 24.2 | 12.2 | 40.9 | 27.9 | 19 | 26
O=c1[nH]nc(Sc2ncc([N+](=O)[O-])s2)n1-c1ccc2c(c1)OCCO2 | 48.6 | 36 | 44.6 | 37.5 | 0 | 0 | 0 | 2.08
CC(C)c1cc(/C=C(\C#N)C(=O)NCCCc2ccccc2)cc(C(C)C)c1O [Tyrphostin SU 1498, SU 1498] | 25.9 | 16.7 | 19.2 | 33.7 | 47 | 34.7 | 0.53 | 16.8
Fc1ccc(-c2nc3n(c2-c2ccncc2)CCS3)cc1 | 5.46 | 11.1 | 14.2 | 11.6 | 45.7 | 29.9 | 12.9 | 17.8
CC[C@@H]1C(=O)N(C)c2cnc(Nc3ccc(C(=O)NC4CCN(C)CC4)cc3OC)nc2N1C1CCCC1 | 9.25 | 7.99 | 16.9 | 7.17 | 48.7 | 71.6 | 52.8 | 49.5
CS(=O)(=O)CCNCc1ccc(-c2ccc3ncnc(Nc4ccc(OCc5cccc(F)c5)c(Cl)c4)c3c2)o1 | 11.6 | 17 | 11.1 | 14.1 | 39.5 | 17.4 | 22.9 | 15.6
COCC[n+]1c2c(n(Cc3cnccn3)c1C)C(=O)c1ccccc1C2=O [YM-155, YM155, Sepantronium bromide] | 66.9 | 65.6 | 65.7 | 33.3 | 23.8 | 7.29 | 4.04 | 0
C[C@]12C=CC(=O)C=C1CC[C@@H]1[C@@H]2[C@@H](O)C[C@@]2(C)[C@H]1CC[C@]2(O)C(=O)CO [Prednisolone; Prelone] | 12.8 | 11.4 | 8.74 | 12.7 | 64.3 | 47.8 | 55.7 | 44.1
O=c1[nH]ccc2c(S(=O)(=O)N3CCCNCC3)cccc12 [HA 1100 hydrochloride, Hydroxyfasudil] | 6.12 | 10.7 | 7.78 | 11.6 | 16.3 | 24.8 | 19.3 | 19.4

Structure (SMILES) | percent SyTOX+ dead cells ([1]; rapamycin 0 nM) [%] | percent SyTOX+ dead cells ([1]; rapamycin 20 nM) [%] | percent SyTOX+ dead cells ([2]; rapamycin 0 nM) [%] | percent SyTOX+ dead cells ([2]; rapamycin 20 nM) [%] | percent ([3]; rapamycin 0 nM) [%] | percent ([3]; rapamycin 20 nM) [%] | percent ([4]; rapamycin 0 nM) [%] | percent ([4]; rapamycin 20 nM) [%]
O=C(NOCC1CC1)c1cc(Br)c(F)c(F)c1Nc1ccc(I)cc1Cl | 6.46 | 2.73 | 8.44 | 4.87 | 33.4 | 39.1 | 44.6 | 39.8
CCN(CCCOc1ccc2c(Nc3cc(CC(=O)Nc4cccc(F)c4)[nH]n3)ncnc2c1)CCOP(=O)(O)O [AZD-1152, Barasertib] | 26.4 | 14.3 | 24.1 | 16.8 | 23.1 | 42.1 | 33.8 | 38.8
Cc1cn(-c2cc(NC(=O)c3ccc(C)c(Nc4nccc(-c5cccnc5)n4)c3)cc(C(F)(F)F)c2)cn1 [Nilotinib, Tasigna, AMN-107] | 7.1 | 5.1 | 16.2 | 10.8 | 42.3 | 35.7 | 5.71 | 7.18
CN(C)c1ccc(-c2nc3ncc(Cl)c(N4CCN(CC(=O)Nc5nccs5)CC4)c3[nH]2)cc1 | 9.63 | 5.98 | 18.7 | 12.9 | 79.1 | 51.3 | 69.6 | 35.3
OCc1ccc(-c2ccc(-c3ccc(CO)s3)o2)s1 | 15.3 | 15.5 | 27.2 | 15.5 | 91.9 | 70.4 | 37.8 | 24.2
Cn1cnc2c(NCc3ccccc3)nc(NCCO)nc21 [Olomoucine] | 8.92 | 9.36 | 7.12 | 8.7 | 39.2 | 35.1 | 35.3 | 43.8
O=C(c1ccc(/C=C/c2n[nH]c3ccccc23)cc1)N1CCNCC1 | 10.1 | 15.7 | 30.1 | 24.4 | 71.9 | 12.9 | 7.53 | 4.44
NC1(c2ccc(-c3nc4ccn5c(=O)[nH]nc5c4cc3-c3ccccc3)cc2)CCC1 | 6.67 | 7.75 | 13.9 | 15.8 | 22.2 | 40.7 | 36.9 | 50.4
O=C(O)c1ccc2c3c1cccc3c(=O)n1c3ccccc3nc21 [STO-609 acetic acid] | 5.23 | 8.66 | 14.4 | 19.2 | 45.1 | 25.2 | 19.3 | 16
CCCOc1ccc(/C=C2/SC(=O)NC2=O)cc1 [PIM1/2 Kinase Inhibitor VI] | 17.5 | 12.9 | 19.3 | 18.4 | 44.4 | 27 | 10.2 | 7.98
O=C(Nc1nc2ccccc2n1CCN1CCOCC1)c1cccc([N+](=O)[O-])c1 [IRAK-1/4 Inhibitor I] | 8.53 | 7.33 | 9.4 | 15.6 | 66.7 | 31.5 | 38.7 | 33.5
CC1(C)C(=O)NC2=C1C(=O)C(=O)c1ccccc12 | 22.1 | 23.4 | 22.8 | 18.1 | 9.94 | 20.3 | 27.9 | 28.1
CN[C@@H](C)C(=O)N[C@H]1CN(C(=O)CC(C)C)CC[C@H]2CC[C@@H](C(=O)NC(c3ccccc3)c3ccccc3)N2C1=O [AT-406, Debio-1143; SM-406 (former code)] | 20.5 | 11.7 | 13.2 | 9.24 | 58.6 | 37.6 | 43.9 | 47.5
Cc1cc(Nc2cc(N3CCN(C)CC3)nc(/C=C/c3ccccc3)n2)n[nH]1 | 19.4 | 20.3 | 50.3 | 48.9 | 29.9 | 78.4 | 4.81 | 18.3
Cc1cc(C(=O)N2CCN(c3cccc(Cl)c3)CC2)n(-c2ccccc2)n1 | 25 | 41.6 | 30.9 | 26.2 | 0 | 10.1 | 0 | 10
COc1ccc(-c2ccc3ncc4c(c3c2)n(-c2ccc(N3CCNCC3)c(C(F)(F)F)c2)c(=O)n4C)cn1 | 52.4 | 52.1 | 63.6 | 54.7 | 0 | 16.7 | 0 | 0
COc1c(O)c2c(=O)cc3c4c5c(cc(=O)c6c(O)c(OC)c(CC(C)O)c(c(c1CC(C)O)c24)c65)OCO3 (configuration not stated) [Cercosporin from Cercospora hayii] | 90.6 | 88.7 | 92.2 | 72.1 | 66.5 | 30.7 | 56.7 | 64.4
CC(C)C[C@H](NC(=O)CNC(=O)c1cc(Cl)ccc1Cl)B(O)O [MLN2238, MLN-2238, Ixazomib] | 9.6 | 7.8 | 8.27 | 8.95 | 44 | 42.5 | 43.1 | 52.2
Cc1cccc(-c2[nH]ncc2-c2ccc3ncccc3n2)n1 | 2.48 | 1.49 | 13.6 | 14.3 | 98.8 | 53 | 86.7 | 29.1
CC(=O)c1c(C)c2cnc(Nc3ccc(N4CCNCC4)cn3)nc2n(C2CCCC2)c1=O | 12.9 | 7.41 | 13 | 10.4 | 21.1 | 13 | 6.95 | 14.5
N#CCNC(=O)c1ccc(-c2ccnc(Nc3ccc(N4CCOCC4)cc3)n2)cc1 | 29.4 | 37.1 | 55.6 | 67.1 | 1.37 | 7.26 | 2.82 | 0
CC(C)[C@H](CO)Nc1nc(Nc2cccc(Cl)c2)c2ncn(C(C)C)c2n1 [Purvalanol A, NG 60] | 6.06 | 27.2 | 68.3 | 45 | 7.58 | 38 | 0 | 0

— the supplement of paper PMC10502849
